This is a noisy data set.

Amyloid nucleation score data for 74 sequences are collected here from the supplement of paper PMC12067230.
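Note: [psi-pin-] Saccharomyces cerevisiae expressing SupN fusions, induced by 100 µM Cu2SO4, selected 7 d at 30 °C without adenine and uracil, scored by deep sequencing of output versus input.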

The nature of the first data set: amyloid nucleation score relative to library mode (yeast Sup35 reporter selection) (log enrichment difference); higher = more amyloid nucleation; sequences are the first 22 residues of the Bri2 peptide extended by up to 12 random residues. As to conditions: random library (experiment): 1;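 active = nucleation score significantly above 0 at FDR 0.05; inactive = not significantly above 0 or absent from output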.
As to EASNCFAIRHFENKFAVETLICEARIYCAAPGPG, the amyloid nucleation score result was “inactive”.
Same read-out and setting: next, EASNCFAIRHFENKFAVETLICEATGRYQLRWTE: “inactive”; EASNCFAIRHFENKFAVETLICEATVYG: “inactive”; EASNCFAIRHFENKFAVETLICEAVRAGRDTGME: 2.28.
Still for that read-out and setting: next, EASNCFAIRHFENKFAVETLICEAVY: “inactive”; EASNCFAIRHFENKFAVETLICECAVSECMLFVA: “inactive”; EASNCFAIRHFENKFAVETLICECC: “inactive”.
Regarding EASNCFAIRHFENKFAVETLICECETLTATGTQS, the amyloid nucleation score result is “inactive”.
On to EASNCFAIRHFENKFAVETLICECGCTEYGQSEA, for which the amyloid nucleation score entry was “inactive”.
The same measure, in the same setting: next, EASNCFAIRHFENKFAVETLICECGHTDADLGTW: 0.609; EASNCFAIRHFENKFAVETLICECGRSGLGLSQC: “inactive”.
Sequence EASNCFAIRHFENKFAVETLICECGTVSSGLA returned an amyloid nucleation score of 0.706.
The same measure, in the same setting: next, EASNCFAIRHFENKFAVETLICECGWVTKRCRCG: “inactive”.
Still for that read-out and setting: next, EASNCFAIRHFENKFAVETLICECGYRDNPVDRR: 4.99.
Turning to EASNCFAIRHFENKFAVETLICECKMACGKVLFS, the amyloid nucleation score result was “inactive”.
The same measure, in the same setting: next, EASNCFAIRHFENKFAVETLICECKPVRCTALRG: 4.49; EASNCFAIRHFENKFAVETLICECLARIMVDSGV: “inactive”; EASNCFAIRHFENKFAVETLICECPIGGDCPGAR: “inactive”.
Same read-out and setting: next, EASNCFAIRHFENKFAVETLICECVASVMEGALG: “inactive”; EASNCFAIRHFENKFAVETLICECVGVLANRSSD: 6.84.
The sequence EASNCFAIRHFENKFAVETLICECVMCVPRHGSL yielded an amyloid nucleation score of 5.18.
Regarding EASNCFAIRHFENKFAVETLICECVR, the amyloid nucleation score result is “inactive”.
Still for that read-out and setting: next, EASNCFAIRHFENKFAVETLICECWCPVGVSMVL: 6.98; EASNCFAIRHFENKFAVETLICECYVWDSVRQYT: “inactive”; EASNCFAIRHFENKFAVETLICEDAASYSVMWEV: 1.45.
Take EASNCFAIRHFENKFAVETLICEDARKGVGEAWE: the amyloid nucleation score entry is “inactive”.
Take EASNCFAIRHFENKFAVETLICEDKATTGVVSRS: the amyloid nucleation score result is “inactive”.
Still for that read-out and setting: next, EASNCFAIRHFENKFAVETLICEDMRVHLHYSRW: “inactive”; EASNCFAIRHFENKFAVETLICEDMSAVYMVGPL: -0.317.
For EASNCFAIRHFENKFAVETLICEDNFSIIHALAY, the amyloid nucleation score result is “inactive”.
Same read-out and setting: next, EASNCFAIRHFENKFAVETLICEDNKTRIALMVG: 0.482.
The same measure, in the same setting: next, EASNCFAIRHFENKFAVETLICEDSTRASLGAVP: “inactive”.
Same read-out and setting: next, EASNCFAIRHFENKFAVETLICEDVWLLELGLPS: 5.8; EASNCFAIRHFENKFAVETLICEDWRGE: “inactive”.
In turn, EASNCFAIRHFENKFAVETLICEE returned an amyloid nucleation score of -0.683.
On to EASNCFAIRHFENKFAVETLICEEQLIIGIPSYG, for which the amyloid nucleation score result is “inactive”.

Still in this data set, the particulars now being: random library (experiment): 2.
In the case of EASNCFAIRHFENKFAVETLICEARKDCLITAVR, the amyloid nucleation score entry is “inactive”.
Same read-out and setting: next, EASNCFAIRHFENKFAVETLICECCAGVRDWQC: 2.6; EASNCFAIRHFENKFAVETLICECD: “inactive”.
EASNCFAIRHFENKFAVETLICECFIFGILSLGT: the amyloid nucleation score entry is “inactive”.
Still for that read-out and setting: next, EASNCFAIRHFENKFAVETLICECL: 0.186.
Same read-out and setting: next, EASNCFAIRHFENKFAVETLICECLGFYRACNCV: 7.38; EASNCFAIRHFENKFAVETLICECLRTVM: “inactive”.
EASNCFAIRHFENKFAVETLICECLSLACSGPSN: the amyloid nucleation score was found to be 6.79.
On the same count and under the same terms, next, EASNCFAIRHFENKFAVETLICECYFYWYRLRSF: “inactive”; EASNCFAIRHFENKFAVETLICEDGA: -0.0862; EASNCFAIRHFENKFAVETLICEDGVVGSFKDSA: “inactive”.
Turning to EASNCFAIRHFENKFAVETLICEDHNSNVRVVLV, the amyloid nucleation score result was “inactive”.
Consider EASNCFAIRHFENKFAVETLICEDMSYIW, for which the amyloid nucleation score entry is “inactive”.
Still for that read-out and setting: next, EASNCFAIRHFENKFAVETLICEDSKLRGILKGA: -0.0583; EASNCFAIRHFENKFAVETLICEDSWL: “inactive”.
Turning to EASNCFAIRHFENKFAVETLICEECVGWPRGGPR, the amyloid nucleation score is 4.28.
Turning to EASNCFAIRHFENKFAVETLICEEGMGSLTGGIS, the amyloid nucleation score entry is “inactive”.
On the same count and under the same terms, next, EASNCFAIRHFENKFAVETLICEEMGYLDPICER: 3.02.

The same data set, now with this note: random library (experiment): 3.
The sequence EASNCFAIRHFENKFAVETLICEASPRRDRWGTV displayed an amyloid nucleation score of -0.225.
For EASNCFAIRHFENKFAVETLICEASWYP, the amyloid nucleation score is 0.405.
Still for that read-out and setting: next, EASNCFAIRHFENKFAVETLICEAVAERAQCSDG: “inactive”; EASNCFAIRHFENKFAVETLICEAWVGSCGGS: “inactive”; EASNCFAIRHFENKFAVETLICECAIGVRLVYQR: “inactive”.
On the same count and under the same terms, next, EASNCFAIRHFENKFAVETLICECIWIRIVKDGE: “inactive”; EASNCFAIRHFENKFAVETLICECLVALCCYDLP: “inactive”; EASNCFAIRHFENKFAVETLICECPFLRKAGEFS: 6.64.
Same read-out and setting: next, EASNCFAIRHFENKFAVETLICECRWGGFLFHRL: “inactive”; EASNCFAIRHFENKFAVETLICECRYMAELGSRR: 4.75.
Take EASNCFAIRHFENKFAVETLICECYTNVEKVIDL: the amyloid nucleation score result was “inactive”.
With EASNCFAIRHFENKFAVETLICEDASEHVGWGSW, the amyloid nucleation score entry was “inactive”.
For EASNCFAIRHFENKFAVETLICEDGPWIRPPR, the amyloid nucleation score entry is “inactive”.
Same read-out and setting: next, EASNCFAIRHFENKFAVETLICEDMVRLHSHLWQ: 3.17; EASNCFAIRHFENKFAVETLICEDRRLSGGCMRL: -0.239.
On to EASNCFAIRHFENKFAVETLICEDYEVPSHTARL, for which the amyloid nucleation score result is “inactive”.
The same measure, in the same setting: next, EASNCFAIRHFENKFAVETLICEEA: “inactive”.
The same measure, in the same setting: next, EASNCFAIRHFENKFAVETLICEEAPAPRGRSRL: “inactive”.
On the same count and under the same terms, next, EASNCFAIRHFENKFAVETLICEEGRYPSQVRSY: “inactive”; EASNCFAIRHFENKFAVETLICEEQRWWELSALE: “inactive”.
